# ± gives the standard deviation of the averaged measurements. The list shows a part of the results.
# System: PfAP2-G AP2 domain (GST-tagged)
# Assay: gcPBM binding intensity (ln(normalized median fluorescence intensity)); higher = stronger DNA binding
# Procedure, shortened: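 An Agilent 4 × 180k array of primer-extended double-stranded 36-bp intergenic genomic probes, with negative controls, was incubated for 1 h with GST-tagged P. falciparum DNA-binding domains expressed in E. coli. Alexa488 anti-GST antibody detected bound protein, scanned at 488 nm. Binding intensity is the highest Masliner-normalised natural-log median intensity across replicate spots of either probe orientation.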
row,Sequence,gcPBM binding intensity (ln)
1,CACACGCACGAACACACACACACACGCGCACATATA [CACACA_site6304],10.6 ± 0.42
2,TAATTTTCATAATTTTGTACTTAACGTTTTACCTTG [XGTACX_site8048],10.9 ± 0.5
3,ACATATATATATATATATATATATATATATTCTTAA [CACACA_negctrl_site930],10.3 ± 0.42
4,TCGATTAAAACACAAAAATATAAATACATTGATAAA [TGCATGCA_negctrl_site523],9.65 ± 0.085
5,TTAATAAATATGTTTACACACGAAAATACATTTTTT [CACACA_site8245],9.895 ± 0.035
6,TTAAAAGTTATGGATACACACATATAAATATAGATT [CACACA_site7175],10.1 ± 0.15
7,TCTTCGAAACTATCACTCTCACAATTCATTTATTTT [TGCATGCA_negctrl_site156],9.85 ± 0.057
8,ATAAATAAGAAAAATTGTACAATATTTTTTAGGATA [XGTACX_site3163],11.1 ± 0.52
9,TAGAATTAAGTTATTGCACACAGGAAAAGTTTCATA [CACACA_site1634],9.99 ± 0.071
10,AATCCTTACGAACACACACACACGAATAAATAAAAA [CACACA_site6363],10.3 ± 0.39
11,ATATACACATTAATAACACACAATATGATAACAAAT [CACACA_site7670],10.2 ± 0.32
12,CTGTGTTTTGGTTGTACACACGCTACATTATATATT [CACACA_site5487],11.6 ± 0.9
13,ATATACATTAAATGAACACACATAAATAAATTACAT [CACACA_site2852],9.955 ± 0.078
14,TTTTAATTTTGTTGTTGTACAAATAACATGTGAGGG [XGTACX_site4401],11.2 ± 0.83
15,TATTTTATCATTTTTTTTATGTCTTTATTTCACTTG [CACACA_negctrl_site1398],9.89 ± 0.042
16,ATATATATATATATATCATTTATTTAAAAATTTTTT [TGCATGCA_negctrl_site228],9.91 ± 0.52
17,CTCATTTTTGTACAGGTGCACTTATCGTTACACTAT,11.3 ± 0.71
18,AACACATAAAAAAGGTGTACCATAAAATATACATAC [XGTACX_site4478],11.4 ± 0.76
19,AAAGTTTTTATAAAAAAAAAAATAAATACCATATAT [XGTACX_negctrl_site113],10.11 ± 0.014
20,GTGTTTTTATGTGAATGTACATATTTACTATCACAC [XGTACX_site2388],11.2 ± 0.6
21,GTGCATAAATCATACACACACACATATATAAATATA [CACACA_site7188],10.2 ± 0.22
22,AAAAGTTTAAGTTTTCGAAAATTTACCAAAAAAAAA [CACACA_negctrl_site1644],10.1 ± 0.16

row,Sequence,gcPBM binding intensity (ln)
1,ATTTATAATATGTATACACACACATATATAAATATA [CACACA_site8729],10 ± 0.16
2,AAATTGGGGCTTGTTACACACTTAGTGTGAGTTCTA [CACACA_site6417],10.2 ± 0.22
3,GTTCAATTATTTTTATGTACATATATTTTTTTCTTT [XGTACX_site2505],11.4 ± 0.89
4,TATAATCATAAATACACACACATATATATATATATA [CACACA_site5224],10.1 ± 0.33
5,TTCTCATCCTTACATACACACACATATATATATATA [CACACA_site7914],10.6 ± 0.74
6,GTTATTAAAAACGGGTGTACACATATATAAATATAT [XGTACX_site1234],11.6 ± 0.86
7,TATTTATTATAAAAATTGTATAAAATAATAATGCTC [GTGCAC_negctrl_site456],9.9 ± 0.3
8,TTTTGTGATCTTACCACCTTTCATAATATTAATAAA [GTGCAC_negctrl_site360],10.4 ± 0.21
9,ATATATTTTAATGATACACACAAGAAATAAAATTAC [CACACA_site5671],10.2 ± 0.15
10,ATAGAACAATTCAGAAGTACATAAAAAGAAAAATTT [XGTACX_site3015],11.4 ± 0.84
11,TTGGATGATTAAGGGGGACACACGTTTATATATTTA [CACACA_site338],11.4 ± 0.79
12,TTCATTCTATAAAACACACAAATATTTTTGTATCCC [CACACA_site6458],10.01 ± 0.085
13,ACTTTTTTAATGTTACGTACACATAAATAATAATTA [XGTACX_site8092],11.6 ± 0.9
14,TTTCACAAATGATATAGTACTTTTTATTATTAACAT [XGTACX_site7976],11.1 ± 0.64
15,ATATATTTTTTGAATACACACATATTATATGTAATA [CACACA_site1256],10 ± 0.18
16,TAAAAAAAAAAAAAAGTACACACTTATAAAATATTA [CACACA_site872],11.6 ± 1
17,TTTATTTATTTAATTACACACGAACATATAACCATT [CACACA_site7952],10.3 ± 0.29
18,ACAAATGAGATTATATGTACACATAACAAATTTACA [XGTACX_site3496],11.5 ± 0.79
19,GTTACACCAACAAACACACACACACCGACACCCAAA [CACACA_site5361],10.4 ± 0.39
20,AAATGTAAAATTTTATGTACATATATTTATATAATA [XGTACX_site3737],11.5 ± 0.8
21,TTTTGACATTAATTACTATAGTGTTCTTATAAAATT [TGCATGCA_negctrl_site589],10.01 ± 0.014
22,CATTTTATTTTAATATGTACTTAAAGAAAAAAAATT [XGTACX_site7670],11.2 ± 0.82

row,Sequence,gcPBM binding intensity (ln)
1,TTATACATATATTTAACACACATTTTATAAAGTGCC [CACACA_site1314],9.875 ± 0.078
2,AAAACTATAATGAATAGTACATAAAAATGGATATAT [XGTACX_site6056],11 ± 0.5
3,AATCGATAAAATGTTGTGCACATATTTTTATATTTA [GTGCAC_site9651],10.4 ± 0.22
4,AATACATAAAAATAAAAATAAAATATAACTAATATG [CACACA_negctrl_site186],9.78
5,TTAAATTACTAATGTGCACACATACTAACGTTTAAA [CACACA_site3573],10.5 ± 0.29
6,TATCTTATTTTATCTCGTACATAAAATTAAAAAATT [XGTACX_site3636],10.9 ± 0.62
7,AATATGTATCCATACACACATACATTTTATTTGCAA [CACACA_site874],10.2 ± 0.18
8,TTTTATTTATTATTTACACACACGTAGGTGTCCATA [CACACA_site430],10.7 ± 0.69
9,ATATAAAATCAACAAAAAAAAAAAATATATATATAT [XGTACX_negctrl_site251],9.64 ± 0.49
10,TGTATATATTTGTGCACACCAAAGTTTGATTTTATT [CACACA_site1860],10.7 ± 0.38
11,TTAACCTTTATATAATACGTATCATCCTCATATATA [CACACA_negctrl_site86],10.4 ± 0.2
12,TTATATTTTTTAATTACACACAATTCTTATAAATAT [CACACA_site7870],9.95 ± 0.099
13,TATTATAACTAAAAAAATCACATAAAATACTTTATT [CACACA_negctrl_site2],9.46 ± 0.22
14,TATATACACATGCGCACACACAAGTGGGAAATTTGG [CACACA_site6930],10.4 ± 0.2
15,AATATTTGCCTATGTTGTACTGACATTTTTTTAAGT [XGTACX_site6836],11.2 ± 0.58
16,ATATATAATATATGATGTACTTAATAATTTTTTTTT [XGTACX_site5715],11.1 ± 0.93
17,TAATAATCCACAAGCACACACACACCCATATATATA [CACACA_site1267],10.3 ± 0.28
18,TTAAGGATCCACGATACACACATATCATTCAACAAA [CACACA_site1924],10.2 ± 0.28
19,TATATATCGTTATATACACACATGTATATAAAAAAT [CACACA_site7501],10.1 ± 0.17
20,TTATTCTAGTAGTGTGTGCGCATGGACAATGCAATA,10.8 ± 0.35
21,ATACATATAATATATGCATGTACCAATCAAATATAT [TGCATGCA_site192],10.5 ± 0.29
22,TTCTTTATATACAAACCAAAATATTATGTATAATAA [CACACA_negctrl_site15],9.83 ± 0.071

row,Sequence,gcPBM binding intensity (ln)
1,CTTTATATAAAATAAAGTACATAAATTATGATATAT [XGTACX_site3699],11.2 ± 0.88
2,ATATTTTATTTATATACACACACATATATATATTAT [CACACA_site8177],10.22 ± 0.042
3,TAATTTTTTTTTATGATACACACTTGGATAATTAAA [CACACA_site562],10.2 ± 0.39
4,TTATTATATATTTTATTTATTAATAGTATATATTAT [TGCATGCA_negctrl_site155],9.74 ± 0.16
5,ATAAAACATAAATACATACACACATAATATATATTA [CACACA_site110],9.98 ± 0.071
6,TAAAAATGGGTATGTACACACTTTATTTTTAATACA [CACACA_site5404],11.5 ± 0.92
7,TTGTGTTTTATTATTTTATTATTACTATTATAATGT [GTGCAC_negctrl_site484],9.86 ± 0.071
8,TGTAATGTTTACAACACACAAATTAGAAATACAAAA [CACACA_site6924],10.2 ± 0.3
9,ACATATTTAAAAACATGTACAAATATATTTATAATT [XGTACX_site661],10.9 ± 0.65
10,AAGGAAGATATATACACACATACAAATATATATATA [CACACA_site2181],9.865 ± 0.092
11,TTTTTTCAATTGGAAATTATTTTACAATGAAGGGTA [XGTACX_negctrl_site469],9.94 ± 0.29
12,GATATATATACATGTGTGCACCATGCAACTTGTTTT,10.4 ± 0.2
13,TATTTTACGTATTGTTGTACTTGAAACAAATATACA [XGTACX_site8778],11.3 ± 0.94
14,TTATTTATAATGTTGTGTACATATATGAATATACCA [XGTACX_site3111],11.5 ± 0.59
15,AAGAAAAAATAAAGCACACAAATATTTTAAAAACAC [CACACA_site3325],10.5 ± 0.4
16,CGTTTCCCCAATGGTTGTACAATATATATATATATA [XGTACX_site8641],11.2 ± 0.66
17,AGACATATAATATATACACACATATATATATATATA [CACACA_site1066],9.94 ± 0.23
18,TATAAACATAAATATACACACAAACATATATGTATT [CACACA_site8324],9.895 ± 0.021
19,ATATTTGCCCAAGATAGTACATATATATATATATAT [XGTACX_site7756],11 ± 0.58
20,ATCAACATCTAACATTGTACATGTGATGTGTAAAAG [XGTACX_site547],10.8 ± 0.47
21,AATTCTCTTAATAAATAAACACAAATAAATAATAAA [GTGCAC_negctrl_site499],9.77 ± 0.13
22,CATACATACAAACACACACACACACCGATATATATA [CACACA_site8952],10 ± 0.2

# Reference: the supplement of paper PMC11417369
